PubChem BioAssay AID1745845 (National Center for Advancing Translational Sciences (NCATS), 2022)
Where “and” joins values, the source holds several entries; their conditions need not be identical. Equal entries are not always repeated. In all, about 360,000 compounds went through this assay and about 2,600 (0.72%) were called active. The inconclusive results got no clear call from the source; some entries with a clear call stand among them for comparison. Calls come from the whole dose curve; as a rule, active = well fitted inhibition curve with a large enough effect; inconclusive = small, poorly fitted or top-dose-only effect; inactive = no such curve, though single readings can be large or run the other way. Potencies of inconclusive entries are doubtful fits and often do not repeat. The source holds several records for some structures; these can differ, active in one and inactive in another.

test: Primary qHTS for Inhibitors of ATXN expression; conditions: HEK-293 ATXN2-luciferase reporter, luminescence, 24 h; activity change, negative = inhibition: at 57 µM (top of the series); note: nearly all actives have a fitted effect of over 55% in size
Summary of the method: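 ATXN2-luciferase reporter cells (luciferase flanked by upstream and downstream ATXN2 gene portions) were treated 24 h at 37 °C with compounds at up to 57 uM. SteadyGlo luminescence gave expression; GF-AFC fluorescence gave viability.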
% is set by controls: 0 for no effect and ±100 for the full control effect; potency is the fitted concentration of half-maximal effect; tags give direction and shape of the fitted curve.

Row | SMILES | Potency | activity change, negative = inhibition
1 | O=C(NC(c1ccc2c(c1)OCO2)c1ccccn1)C1CCN(CCOc2ccc(Cl)cc2Cl)CC1 (centres undefined) | inconclusive: 25.1 µM [inhibitor, single point] | –
2 | Cc1nc2n(c(=O)c1CCN1CCC(C(=O)c3ccc(F)cc3)CC1)CCS2 | inconclusive: 2.51 µM [inhibitor, full curve] | –
3 | Cc1nc2c(C)cccc2c2c1CCN2c1ccccc1F | inconclusive: 22.4 µM [inhibitor, partial curve, poor fit] | –
4 | N=C(N)SCP(=O)(c1ccccc1)c1ccccc1 | – | inactive: -27.1%
5 | N#Cc1ccccc1NC(=O)CNc1ccc(Cl)c(C(F)(F)F)c1 | – | inactive: 0.897%
6 | O=C1Oc2ccccc2C(=O)/C1=C/c1ccccc1O | inconclusive: 37.7 µM [inhibitor, single point] | –
7 | O=C(N/N=C\c1cc(Br)ccc1O)c1ccc(S(=O)(=O)N2CCCCC2)cc1 | inconclusive: 2.12 µM [inhibitor, full curve, poor fit] | –
8 | CCc1ccc(C(CNc2nc(C(F)(F)F)nc3ccccc23)N(C)C)cc1 (centres undefined) | inconclusive: 31.6 µM [inhibitor, single point] | –
9 | O=C(C[C@@H]1CC=CCCC(=O)O[C@H](c2ccccc2)CNC1=O)NCc1ccc(Cl)cc1 | inconclusive: 0.611 µM [inhibitor, full curve, poor fit] | –
10 | CCOC(=O)[C@H](CCc1ccccc1)N[C@@H](C)C(=O)N1Cc2cc(OC)c(OC)cc2C[C@H]1C(=O)O | – | inactive: 11.3%
11 | COc1nc(NCCO)nc(Nc2ccccc2F)n1 | – | inactive: 0.626%
12 | CCOc1ccc(C(=O)Nc2cccc(-c3nc4cccnc4o3)c2)cc1Cl | inconclusive: 28.2 µM [inhibitor, single point] | –
13 | Cc1cc(C)c2c(=O)n(CC(=O)NCCCN3CCN(c4ccccc4F)CC3)sc2n1 | inconclusive: 23.8 µM [inhibitor, single point] | –
14 | CCc1nnc(NC(=O)CCC(=O)N2CCN(CCOc3ccc(C)cc3)CC2)s1 | – | inactive: -10.5%
15 | O=C(Oc1cccc2cccnc12)c1ccccc1 | inconclusive: 7.08 µM [inhibitor, full curve, poor fit] | –
16 | O=C(/C=C/c1ccc(OC(F)F)cc1)Nc1cccc(S(=O)(=O)N2CCOCC2)c1 | inconclusive: 39.8 µM [inhibitor, single point] | –
17 | Cc1ccc(/C=N/NC(=O)c2ccc(-c3ccccc3)cc2)o1 | inconclusive: 4.74 µM [inhibitor, single point] | –
18 | CCOc1ccc(CNS(=O)(=O)c2ccc3c(c2)CCCN3C(C)=O)cc1OC | – | inactive: -10.6%
19 | CC(=O)Nc1ccc(-c2ccnc3c2CC(C)(C(=O)NCC2CC2)O3)cc1 (centres undefined) | – | inactive: 13.9%
20 | COc1ccc(-c2cc(C(F)(F)F)nc(S(=O)(=O)CCCC(=O)Nc3cccnc3Cl)n2)cc1OC | inconclusive: 37.7 µM [inhibitor, single point] | –
21 | C(=N\Nc1ccc2ccccc2n1)/c1ccc2c(c1)OCO2 | inconclusive: 26.7 µM [inhibitor, single point] | –
22 | O=C(CC1SC(=Nc2ccc(OC(F)F)cc2)N(CCC2=CCCCC2)C1=O)Nc1ccccc1F (centres undefined) | – | inactive: -9.93%

Row | SMILES | Potency | activity change, negative = inhibition
23 | COc1cccc(CNC(=O)Cc2c(C(=O)O)c(C)cn2C)c1 | – | inactive: 11.4%
24 | COc1ccc(NC(=O)Nc2nnc(CC(=O)NCc3ccccc3)s2)cc1 | inconclusive: 39.8 µM [inhibitor, single point] | –
25 | COc1ccc(C2SCC(=O)N2CCc2ccc(OC)c(OC)c2)cc1 (centres undefined) | inconclusive: 2.82 µM [inhibitor, partial curve, poor fit] | –
26 | NC(CO)C(=O)NNCc1ccc(O)c(O)c1O (centres undefined) | inconclusive: 39.8 µM [inhibitor, single point] and inconclusive: 38.5 µM [inhibitor, single point] | –
27 | CC1OC(CC(=O)O)CC2=C1C(=O)c1c(O)cccc1C2=O (centres undefined) | active: 1.19 µM | –
28 | Cc1nn(C)cc1CN1CCC(CO)(CCOc2ccccc2)CC1 | – | inactive: -1.45%
29 | CCCc1cc(C(=O)N/N=C/c2ccc(CC)s2)c2ccccc2n1 | inconclusive: 8.91 µM [inhibitor, partial curve, poor fit] | –
30 | CCn1nnc2cc(C(=O)NCCc3ccccc3F)ccc21 | – | inconclusive: -70.1% [inhibitor]
31 | CCO[C@H]1OC(C(=O)N2CCN(Cc3ccc4c(c3)OCO4)CC2)=C[C@@H](c2ccc(Br)cc2)[C@@H]1CCCO | inconclusive: 39.8 µM [inhibitor, single point] | –
32 | O=C(NC1CCCC1)c1sc(=S)n2c1[nH]c(=O)c1ccccc12 | inconclusive: 39.8 µM [inhibitor, partial curve, poor fit] | –
33 | CCC(=O)Nc1nc2ccccc2n1CCN(C)C | – | inactive: -11.8%
34 | Oc1ccc(CNc2ccccc2F)c2cccnc12 | active: 17.8 µM | –
35 | COc1ccc2nc3n(c(=O)c2c1)-c1cc2ccccc2cc1C(=O)NC3Cc1ccc(O)cc1 (centres undefined) | inconclusive: 17.8 µM [inhibitor, partial curve] | –
36 | CC1=C(C(=O)N(C(C)C)C(C)C)CC(CC(=O)NC2CCCC2)C(=O)N1Cc1ccc(C(C)(C)C)cc1 (centres undefined) | inconclusive: 25.1 µM [inhibitor, partial curve, poor fit] | –
37 | Cc1ccc2c(c1)C1CN(C)CCC1N2Sc1ccccc1[N+](=O)[O-] (centres undefined) | inconclusive: 25.1 µM [inhibitor, single point] | –
38 | CCOc1cc(/C=N/Nc2nc3ccccc3[nH]2)cc(Br)c1OCC(=O)N(C)C | inconclusive: 21.2 µM [inhibitor, partial curve, poor fit] | –
39 | CC(=O)Nc1ccc(Oc2nc(-c3ccccn3)nc3ccccc23)cc1 | – | inactive: 22.5%
40 | COc1cc2ccccc2cc1C(=O)Nc1ccc2oc(-c3ccc(F)cc3Cl)nc2c1 | – | inactive: 44.7%
41 | CC1CCCN(S(=O)(=O)c2ccc(NC(=O)CN3C(=O)NC(C)(c4ccccc4)C3=O)cc2)C1 (centres undefined) | – | inactive: 7.03%
42 | CCOC1=C2[C@@H](CN(S(=O)(=O)c3ccc(C)cc3)[C@H]2c2ccc(CC)cc2)[C@H]2C(=O)N(C)C(=O)[C@H]2C1 | – | inactive: -8.38%
43 | CCCN1C(=S)c2ccccc2C1c1ccccc1 (centres undefined) | – | inactive: -14.3%
44 | CCOC(=O)C1(C)CCCN(C(=O)c2ccc(-c3ccccc3)cc2)C1 (centres undefined) | – | inactive: -20.2%
